Results as given in PMC12820563.
This is one part of the list. The list includes weakly bound sequences.

Target: T1, MBP-FoxP3dN (UniProt Q99JB6)
T1 sequence: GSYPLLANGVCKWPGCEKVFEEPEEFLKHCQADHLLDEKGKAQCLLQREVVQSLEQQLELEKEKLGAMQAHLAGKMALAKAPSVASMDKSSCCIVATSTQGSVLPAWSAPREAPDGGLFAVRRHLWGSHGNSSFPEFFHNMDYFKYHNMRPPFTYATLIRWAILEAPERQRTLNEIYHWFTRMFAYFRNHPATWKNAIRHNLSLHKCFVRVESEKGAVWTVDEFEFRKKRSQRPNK
Assay: PD-seq (MBP pull-down with sequencing)
Settings: 20 mM Tris-HCl pH 7.5, 100 mM NaCl, 1.5 mM MgCl2, 0.4 uM protein, 0.1 uM dsDNA library, 30 min, room temperature, amylose pull-down; high values mean tight binding; double strand, one strand shown

Sequence | binding signal (RPM ratio (pull-down/input))
GATGATTGTTCTCCCAGCTGATGAATTCGAAGCATCGAGTAAACAAATTTTCCTAATCTTTCTGTTCAAGCGCCATCTAC | 0.636
GATGATTGTTCTCCCAGCTGATGAATTAAGGCGGTCGAGTAAACAAATTTTCCTAATCTTTCTGTTCAAGCGCCATCTAC | 0.609
GATGATTGTTCTCCCAGCTGATGAATTTGGCGAGTCGAGTAAACAAATTTTCCTAATCTTTCTGTTCAAGCGCCATCTAC | 0.696
GATGATTGTTCTCCCAGCTGATGAATTTACAAGCTCGAGTAAACAAATTTTCCTAATCTTTCTGTTCAAGCGCCATCTAC | 0.464
GATGATTGTTCTCCCAGCTGATGAATTAGAGATTTCGAGTAAACAAATTTTCCTAATCTTTCTGTTCAAGCGCCATCTAC | 0.312
GATGATTGTTCTCCCAGCTGATGAATTGTCCTACTCGAGTAAACAAATTTTCCTAATCTTTCTGTTCAAGCGCCATCTAC | 0.368
GATGATTGTTCTCCCAGCTGATGAATTTGTGACATCGAGTAAACAAATTTTCCTAATCTTTCTGTTCAAGCGCCATCTAC | 1.66
GATGATTGTTCTCCCAGCTGATGAATTTTACGAGTCGAGTAAACAAATTTTCCTAATCTTTCTGTTCAAGCGCCATCTAC | 0.256
GATGATTGTTCTCCCAGCTGATGAATTCAGATATTCGAGTAAACAAATTTTCCTAATCTTTCTGTTCAAGCGCCATCTAC | 0.741
GATGATTGTTCTCCCAGCTGATGAATTGTAGCTTTCGAGTAAACAAATTTTCCTAATCTTTCTGTTCAAGCGCCATCTAC | 1.42
GATGATTGTTCTCCCAGCTGATGAATTATTGAGCTCGAGTAAACAAATTTTCCTAATCTTTCTGTTCAAGCGCCATCTAC | 0.368
GATGATTGTTCTCCCAGCTGATGAATTTGCCAATTCGAGTAAACAAATTTTCCTAATCTTTCTGTTCAAGCGCCATCTAC | 0.511
GATGATTGTTCTCCCAGCTGATGAATTGTACTCTTCGAGTAAACAAATTTTCCTAATCTTTCTGTTCAAGCGCCATCTAC | 0.51
GATGATTGTTCTCCCAGCTGATGAATTTTGCGTATCGAGTAAACAAATTTTCCTAATCTTTCTGTTCAAGCGCCATCTAC | 3.74
GATGATTGTTCTCCCAGCTGATGAATTCTTGCATTCGAGTAAACAAATTTTCCTAATCTTTCTGTTCAAGCGCCATCTAC | 6.02
GATGATTGTTCTCCCAGCTGATGAATTTTCTAATTCGAGTAAACAAATTTTCCTAATCTTTCTGTTCAAGCGCCATCTAC | 0.263
GATGATTGTTCTCCCAGCTGATGAATTTAGAGGCTCGAGTAAACAAATTTTCCTAATCTTTCTGTTCAAGCGCCATCTAC | 0.583
GATGATTGTTCTCCCAGCTGATGAATTAATTATCTCGAGTAAACAAATTTTCCTAATCTTTCTGTTCAAGCGCCATCTAC | 1.7
